Laboratory results: article PMC12040169 (PLOS Biology, 2025)
Some of the results follow.

test system: T1, C. trachomatis L2/434/Bu expressing GFP (CTL2-GFP); design: species or system HeLa; C. trachomatis total inclusion area by high-content imaging, normalised to DMSO; details: total inclusion area; 28.5 h, 10 µM; inhibitor
T1 construct: L2/434/Bu GFP intracellular growth in HeLa cells
Outline: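 Bulk GFP and resorufin signals were read first. Wells were then fixed, stained with Hoechst and imaged to detect GFP inclusions and host nuclei. MICs followed the previously described calculation.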

| Structure (SMILES) | % of control remaining |
| --- | --- |
| OC(c1cccs1)C1CCN(Cc2ccc(-n3cncn3)cc2)CC1 (stereo not drawn) [CBK306523] | 52.3585 |
| CCN1CCCC1CNC(=O)c1ccc(C)nc1NCCCn1ccnc1 (stereo not drawn) [CBK076382] | 111.606 |
| Cc1noc([C@@H]2C[C@H](NS(=O)(=O)c3ccc(C#N)cc3)CN2C)n1 [CBK288874] | 110.912 |
| Cc1cccnc1C(c1ccc(F)cc1)N(C)C(=O)C1CCN(C(=O)OCc2ccccc2)CC1 (stereo not drawn) [CBK060095] | 98.355 |
| CCCCSc1nnc2c(n1)OC(/C=C/c1ccc([N+](=O)[O-])o1)Nc1ccccc1-2 (stereo not drawn) [CBK262565] | 67.3076 |
| c1ccc(-c2cnc(C3CCCCC3)o2)cc1 [CBK008192] | 48.1545 |
| COc1ccc(CCNC(=O)c2n[nH]c(=O)c3ccccc23)cc1OC [CBK270160] | 73.9522 |
| COc1ccc2c(c1)CCC1(C)C2=C(C(=O)O)CC1O (stereo not drawn) [CBK022814] | 65.5 |
| CC(C)[C@H](CO)Nc1nc(-c2cccc(OC(F)(F)F)c2)cnc1N [CBK063957] | 110.648 |
| Brc1c(OCc2ccccc2)ccc2[nH]ccc12 [CBK160845] | 34.6617 |
| O=C(NCCn1nc(-c2ccco2)ccc1=O)C1CCCCC1 [CBK283743] | 74.9129 |
| CN1C[C@@H](NS(C)(=O)=O)C[C@H]1c1nc(-c2ccc3ccccc3c2)no1 [CBK288859] | 110.044 |
| C=CCn1c(NCc2ccccc2NS(=O)(=O)c2ccc(C)cc2)nc2ccccc21 [CBK266393] | 141.456 |
| CC(NC(=O)c1ccc(=O)n(C)n1)c1ccc2c(c1)CCCC2 (stereo not drawn) [CBK281416] | 87.0693 |
| CCc1noc(C)c1C(=O)NCCN(C)C [CBK268118] | 110.51 |
| Cc1ccc(C(=O)NCC(c2ccccc2Cl)N2CCOCC2)c(=O)[nH]1 (stereo not drawn) [CBK305928] | 82.1414 |
| CCCC(=O)NC[C@H]1CC[C@H](c2ccnc3cc(C)nn32)CC1 [CBK283474] | 101.336 |
| CN1C(=O)c2ccc(NS(C)(=O)=O)cc2C1=O [CBK038158] | 89.9708 |
| CCn1c(SCC(=O)Nc2ccccc2OC)nnc1-c1ccc(N)cc1 [CBK265859] | 141.209 |
| CC(C)(C)OC(=O)N1CCC(c2nc(-c3cccnc3)no2)CC1 [CBK304332] | 77.3269 |
| Cc1cc(S(=O)(=O)Nc2ccc(C(C)(C)C)cc2)sc1C(=O)O [CBK297946] | 123.5 |
| COc1cc(NC(=O)CC2NC3CCCCC3NC2=O)cc(OC)c1OC (stereo not drawn) [CBK270012] | 114.335 |
| COc1ccc(OC)c(-n2c(S)nnc2Cn2c(-c3ccccn3)nc3ccccc32)c1 [CBK269320] | 95.9449 |
| COCCCn1c(=O)[nH]c2ncc(-c3ccc(C(=O)N4CCOCC4)cc3)nc21 [CBK064366] | 88.2436 |
| Cc1cc(C)nc(SCC(=O)Nc2cc(C(=O)O)cc([N+](=O)[O-])c2)n1 [CBK268937] | 102.896 |
| Cc1ncc(CN(C)C(=O)Nc2cccc(C(=O)N3CCOCC3)c2)s1 [CBK305984] | 90.9093 |

| Structure (SMILES) | % of control remaining |
| --- | --- |
| O=C(CSc1nccn1C1CC1)Nc1ccc(CN2CCOCC2)cc1 [CBK306071] | 77.0418 |
| CCC(C)(C)C1CCC(NC(=O)CSCCC(=O)O)CC1 (stereo not drawn) [CBK296674] | 115.835 |
| Cc1cc(C)n(CC(=O)N2CCCC2c2cc3cccnc3[nH]2)n1 (stereo not drawn) [CBK285074] | 65.2397 |
| COc1cc(NC(=O)NCc2cncn2CC(C)C)c2ncccc2c1 [CBK307182] | 87.9717 |
| COCc1cc(C)nc(NCCO)c1C#N [CBK262556] | 89.9944 |
| NC(=O)CN1CC2(CCN(Cc3cccc(C(F)(F)F)c3)CC2)c2ccccc21 [CBK126776] | 91.0744 |
| Cc1ccc(NC(=O)CSc2nnc(COc3ccc(Cl)cc3Cl)o2)cc1Cl [CBK264113] | 102.994 |
| CCN(CC)C(=O)CN1CCC(Oc2nccnc2OC2CCCCC2)CC1 [CBK082866T] | 99.1449 |
| CC1CCC(C(N)=O)CN1c1cc(Br)ccn1 (stereo not drawn) [CBK304856] | 47.2589 |
| COc1ccc([C@@]23CC[C@@H](NC(=O)Nc4c(F)ccc(F)c4Cl)C[C@@H]2N(C)CC3)cc1OC [CBK073769T] | 101.206 |
| CCc1ocnc1C(=O)NC1CCCN(Cc2ccccc2F)C1 (stereo not drawn) [CBK306924] | 75.8481 |
| Cc1ccccc1Nc1nc(CN2CCC3(CCCOC3)C2)cs1 (stereo not drawn) [CBK304255] | 58.9314 |
| CCC(CC)(CC(=O)Nc1ccc2nc(C)sc2c1)C(=O)O [CBK297882] | 117.223 |
| CCNc1cc2ccccc2c(-c2cc(C(C)C)ccc2OC)n1 [CBK073777] | 83.4932 |
| NS(=O)(=O)c1ccc(CNC(=O)c2cc(-c3cccnc3)nc3ccc(Cl)cc23)cc1 [CBK267727] | 108.424 |
| CCc1nc2ccc(C(=O)N(C)CCN(C)C)cn2c1N(C)Cc1nccs1 [CBK145474] | 125.75 |
| CCC1CCCCN1CC(=O)N1CCCC1c1nc2ccccc2[nH]1 (stereo not drawn) [CBK282695] | 109.501 |
| C[C@H](NC(=O)Cc1ccc(-c2ccccc2)cc1)c1nc2ccccc2[nH]1 [CBK296998] | 32.1222 |
| O=C(NCc1ccccc1)c1ccc(NCc2ccccc2)c([N+](=O)[O-])c1 [CBK074547] | 65.2166 |
| CCCc1oc(C(=O)O)cc1CN(CC)CC [CBK267943C] | 103.946 |
| O=C(CCc1ccc(F)cc1)N1CCC(CC(=O)N2CCN(c3ccccc3)CC2)CC1 [CBK286245] | 85.7124 |
| CC(C)(C)c1ccc(-c2nnc(SCC(=O)c3ccc(F)cc3)o2)cc1 [CBK067988] | 107.846 |
| O=C(N[C@H]1CCN2C(=O)c3cc(-c4ccsc4)ccc3NC(=O)[C@H]12)c1cccc(F)c1 [CBK289339] | 100.782 |
| Cc1ccc(C(=O)N2CCC(c3nn(C)c4ncccc34)CC2)s1 [CBK284988] | 82.6833 |
| COCc1nc(C(=O)Nc2ccc(NC(C)=O)cc2C(F)(F)F)cs1 [CBK306298] | 64.3337 |
